Out of some 410,000 compounds screened, about 7,200 (1.8%) were called active. The inconclusive results got no clear call from the source; some entries with a clear call stand among them for comparison. Calls follow the shape of the dose curve; as a rule, active = well fitted activation curve with a large enough effect; inconclusive = small, poorly fitted or top-dose-only effect, or another doubt; inactive = no such curve, though single readings can be large or run the other way. Where the call is inconclusive, the potency comes from a doubtful curve fit.
Test: qHTS of TDP-43 Inhibitors; also: nearly all actives have a fitted effect of over 50% in size
Settings: TDP-43 expressing yeast growth rescue, BacTiter-Glo, 24 h; series mostly up to 46.1 µM
In short: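 Yeast cells expressing TDP-43 under galactose induction are exposed to compounds for 24 hr at 30 deg C. BacTiter-Glo luminescence measures growth, so protective compounds score as activators.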
Potency is read from the fitted curve at half-maximal effect; tags tell the direction and shape of the fitted curve.

Potency, inactive:
COc1ccc(-c2ccc(=O)n(CC(=O)Nc3ccc(C)cc3C)n2)cc1
O=C(COC(=O)/C=C/c1ccc([N+](=O)[O-])cc1)NCc1ccc2c(c1)OCO2

Potency, inconclusive:
C=CCNC(=O)c1ccc(C(=O)c2ccccc2)cc1 11.2 µM [activator, partial curve]
CCc1ccc([C@@H]2CC(=O)[C@@H]3CN(S(=O)(=O)c4ccccc4C)[C@H](c4ccc(Cl)cc4)C[C@@H]3N2S(=O)(=O)c2ccc(C)cc2)cc1 28.2 µM [activator, partial curve]
CC(C)c1ccc(N2C(=O)CC(Sc3nc4ccccc4o3)C2=O)cc1 (configuration not stated) 12.6 µM [activator, partial curve]
Cc1cc(C)n(-c2ccc(C(=O)Nc3cccnc3Cl)cc2)n1 3.98 µM [activator, full curve]
COc1ccc(CNC(=O)CCc2c(C)nc3cc(-c4ccccc4OC)nn3c2C)cc1 20 µM [activator, partial curve]
Nc1nnc(Cc2ccc(Cl)c(Cl)c2)s1 17.8 µM [activator, partial curve]
CN1CCN(CCCNC(=O)c2ccc(/C=C3\Oc4ccccc4N(Cc4ccccc4F)C3=O)cc2)CC1 14.1 µM [activator, single point]
Cc1cc(=O)n(C)c(=O)n1CCCCOc1cccc([N+](=O)[O-])c1 14.1 µM [activator, partial curve]
COc1ccc(C(=O)Nc2c(F)c(F)c(F)c(F)c2F)cc1OC 1.26 µM [activator, full curve, poor fit]
CCOC(=O)c1cnc(NCc2ccccc2OC)c2ccccc12 35.5 µM [activator, single point]
O=S(=O)(c1cc(F)ccc1F)N1CCC2(CC1)OCCN2S(=O)(=O)c1cccs1 10 µM [activator, partial curve]
Cc1cc(NC(=O)c2ccc(-c3ccccc3[N+](=O)[O-])o2)no1 2.24 µM [activator, full curve]
COc1ccccc1Nc1cc(C(=O)NC2CCCC2)c2ccccc2n1 0.562 µM [activator, full curve, poor fit]
CC1=CC(C)(C)N(C(=O)CSc2nnc(-c3ccccc3)o2)c2ccc(C)cc21 35.5 µM [activator, single point]
Cn1nc(-c2ccccc2)cc1NC(=O)c1ccccc1 5.01 µM [activator, full curve]
